Data as given in paper PMC9986587.
No constants are given. Whether binding was seen depends on the method and setting. Binding seen in cells or lysates may run through a third protein. Some binding calls cover weakened binding; strength is not graded here. Tags and fused reporters may be left off the sequences shown.

Legend:
Assay in all cases: co-IP; 293T cells transiently cotransfected with a Flag-tagged and a 6Myc-tagged protein; cell extracts two days after transfection; immunoprecipitation with anti-Flag antibodies, anti-Myc Western blot
[1] = biological target: T1, Flag-tagged JMJD2A amino acids 2-703 (UniProt O75164)
T1 sequence: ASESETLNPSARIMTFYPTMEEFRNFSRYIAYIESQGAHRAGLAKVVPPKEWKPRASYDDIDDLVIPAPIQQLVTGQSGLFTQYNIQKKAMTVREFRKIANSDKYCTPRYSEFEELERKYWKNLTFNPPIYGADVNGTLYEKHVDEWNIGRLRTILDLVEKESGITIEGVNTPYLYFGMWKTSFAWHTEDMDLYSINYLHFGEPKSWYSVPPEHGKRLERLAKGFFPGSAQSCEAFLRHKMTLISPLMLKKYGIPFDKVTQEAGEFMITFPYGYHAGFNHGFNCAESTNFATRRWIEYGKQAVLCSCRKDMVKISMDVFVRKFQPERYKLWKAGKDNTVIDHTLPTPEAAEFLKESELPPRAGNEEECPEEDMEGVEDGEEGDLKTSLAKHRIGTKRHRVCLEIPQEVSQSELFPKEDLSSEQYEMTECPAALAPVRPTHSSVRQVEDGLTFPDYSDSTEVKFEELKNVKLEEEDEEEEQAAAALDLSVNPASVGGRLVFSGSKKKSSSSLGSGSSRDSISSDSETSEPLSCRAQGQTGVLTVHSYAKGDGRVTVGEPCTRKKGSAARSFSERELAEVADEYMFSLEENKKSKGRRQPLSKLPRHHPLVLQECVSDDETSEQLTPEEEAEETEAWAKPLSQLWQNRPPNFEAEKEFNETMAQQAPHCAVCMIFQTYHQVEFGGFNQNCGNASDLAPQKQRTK

[2] = biological target: T2, Flag-tagged JMJD2A amino acids 61-1064 (UniProt O75164)
T2 sequence: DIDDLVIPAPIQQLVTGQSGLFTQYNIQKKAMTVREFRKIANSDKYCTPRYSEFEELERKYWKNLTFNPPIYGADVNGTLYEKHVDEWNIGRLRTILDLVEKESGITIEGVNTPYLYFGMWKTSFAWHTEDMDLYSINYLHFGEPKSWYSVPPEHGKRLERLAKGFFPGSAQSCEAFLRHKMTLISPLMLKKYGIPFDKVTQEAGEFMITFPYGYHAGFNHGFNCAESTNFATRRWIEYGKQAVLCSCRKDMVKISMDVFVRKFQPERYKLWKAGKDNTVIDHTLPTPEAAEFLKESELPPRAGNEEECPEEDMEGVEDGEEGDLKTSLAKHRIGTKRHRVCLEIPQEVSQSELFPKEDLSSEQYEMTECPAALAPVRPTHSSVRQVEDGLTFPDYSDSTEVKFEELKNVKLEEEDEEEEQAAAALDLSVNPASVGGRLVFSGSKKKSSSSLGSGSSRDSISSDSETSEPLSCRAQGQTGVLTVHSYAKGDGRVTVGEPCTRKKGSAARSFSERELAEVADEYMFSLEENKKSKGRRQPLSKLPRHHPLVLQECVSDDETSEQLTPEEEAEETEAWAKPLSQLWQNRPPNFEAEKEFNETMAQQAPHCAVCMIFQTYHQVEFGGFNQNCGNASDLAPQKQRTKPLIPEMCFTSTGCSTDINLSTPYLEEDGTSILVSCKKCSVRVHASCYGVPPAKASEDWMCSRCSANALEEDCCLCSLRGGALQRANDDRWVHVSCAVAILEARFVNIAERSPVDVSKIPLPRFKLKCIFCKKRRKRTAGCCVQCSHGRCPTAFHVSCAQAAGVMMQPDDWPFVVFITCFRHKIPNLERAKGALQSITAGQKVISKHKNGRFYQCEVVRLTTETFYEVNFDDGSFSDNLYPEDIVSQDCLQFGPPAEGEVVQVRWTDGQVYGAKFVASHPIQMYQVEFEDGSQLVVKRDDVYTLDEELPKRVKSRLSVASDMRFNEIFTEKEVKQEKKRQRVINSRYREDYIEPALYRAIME

[3] = biological target: T3, Flag-tagged JMJD2A amino acids 301-1064 (UniProt O75164)
T3 sequence: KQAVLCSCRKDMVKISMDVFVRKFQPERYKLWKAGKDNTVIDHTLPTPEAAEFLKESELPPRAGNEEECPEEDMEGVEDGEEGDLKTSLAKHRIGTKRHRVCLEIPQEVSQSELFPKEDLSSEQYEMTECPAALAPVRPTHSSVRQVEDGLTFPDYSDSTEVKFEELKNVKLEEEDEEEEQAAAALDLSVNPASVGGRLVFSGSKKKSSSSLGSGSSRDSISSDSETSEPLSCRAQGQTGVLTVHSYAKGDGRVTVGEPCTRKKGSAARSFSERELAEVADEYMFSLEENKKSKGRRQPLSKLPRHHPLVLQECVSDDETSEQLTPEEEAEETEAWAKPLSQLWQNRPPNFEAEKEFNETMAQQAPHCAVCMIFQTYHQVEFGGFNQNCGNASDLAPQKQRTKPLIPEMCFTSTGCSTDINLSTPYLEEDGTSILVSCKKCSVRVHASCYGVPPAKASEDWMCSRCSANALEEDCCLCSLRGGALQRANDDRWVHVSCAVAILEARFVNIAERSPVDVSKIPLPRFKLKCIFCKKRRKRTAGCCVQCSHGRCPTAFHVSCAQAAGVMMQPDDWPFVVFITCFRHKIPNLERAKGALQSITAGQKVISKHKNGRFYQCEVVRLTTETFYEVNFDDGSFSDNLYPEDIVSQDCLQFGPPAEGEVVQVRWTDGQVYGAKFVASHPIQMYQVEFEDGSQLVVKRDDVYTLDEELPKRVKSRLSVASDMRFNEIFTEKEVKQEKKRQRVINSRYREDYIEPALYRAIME

B1: 6Myc-JMJD1A (protein, UniProt Q9Y4C1 1-1321)
chain: MVLTLGESWPVLVGRRFLSLSAADGSDGSHDSWDVERVAEWPWLSGTIRAVSHTDVTKKDLKVCVEFDGESWRKRRWIEVYSLLRRAFLVEHNLVLAERKSPEISERIVQWPAITYKPLLDKAGLGSITSVRFLGDQQRVFLSKDLLKPIQDVNSLRLSLTDNQIVSKEFQALIVKHLDESHLLKGDKNLVGSEVKIYSLDPSTQWFSATVINGNPASKTLQVNCEEIPALKIVDPSLIHVEVVHDNLVTCGNSARIGAVKRKSSENNGTLVSKQAKSCSEASPSMCPVQSVPTTVFKEILLGCTAATPPSKDPRQQSTPQAANSPPNLGAKIPQGCHKQSLPEEISSCLNTKSEALRTKPDVCKAGLLSKSSQIGTGDLKILTEPKGSCTQPKTNTDQENRLESVPQALTGLPKECLPTKASSKAELEIANPPELQKHLEHAPSPSDVSNAPEVKAGVNSDSPNNCSGKKVEPSALACRSQNLKESSVKVDNESCCSRSNNKIQNAPSRKSVLTDPAKLKKLQQSGEAFVQDDSCVNIVAQLPKCRECRLDSLRKDKEQQKDSPVFCRFFHFRRLQFNKHGVLRVEGFLTPNKYDNEAIGLWLPLTKNVVGIDLDTAKYILANIGDHFCQMVISEKEAMSTIEPHRQVAWKRAVKGVREMCDVCDTTIFNLHWVCPRCGFGVCVDCYRMKRKNCQQGAAYKTFSWLKCVKSQIHEPENLMPTQIIPGKALYDVGDIVHSVRAKWGIKANCPCSNRQFKLFSKPASKEDLKQTSLAGEKPTLGAVLQQNPSVLEPAAVGGEAASKPAGSMKPACPASTSPLNWLADLTSGNVNKENKEKQPTMPILKNEIKCLPPLPPLSKSSTVLHTFNSTILTPVSNNNSGFLRNLLNSSTGKTENGLKNTPKILDDIFASLVQNKTTSDLSKRPQGLTIKPSILGFDTPHYWLCDNRLLCLQDPNNKSNWNVFRECWKQGQPVMVSGVHHKLNSELWKPESFRKEFGEQEVDLVNCRTNEIITGATVGDFWDGFEDVPNRLKNEKEPMVLKLKDWPPGEDFRDMMPSRFDDLMANIPLPEYTRRDGKLNLASRLPNYFVRPDLGPKMYNAYGLITPEDRKYGTTNLHLDVSDAANVMVYVGIPKGQCEQEEEVLKTIQDGDSDELTIKRFIEGKEKPGALWHIYAAKDTEKIREFLKKVSEEQGQENPADHDPIHDQSWYLDRSLRKRLHQEYGVQGWAIVQFLGDVVFIPAGAPHQVHNLYSCIKVAEDFVSPEHVKHCFWLTQEFRYLSQTHTNHEDKLQVKNVIYHAVKDAVAMLKASESSFGKP
binding [1]: binds
binding [2]: binds
binding [3]: no binding
